In the BET-seq Pho4 binding data (Le et al. 2018):
This is one part of the list. Values were computed here from the reads of four pooled replicates and scatter widely.

molecular target: T1, Pho4 (S. cerevisiae) (UniProt P07270); assay: relative binding free energy (BET-seq); higher = weaker binding; details: reference: library average
T1 sequence: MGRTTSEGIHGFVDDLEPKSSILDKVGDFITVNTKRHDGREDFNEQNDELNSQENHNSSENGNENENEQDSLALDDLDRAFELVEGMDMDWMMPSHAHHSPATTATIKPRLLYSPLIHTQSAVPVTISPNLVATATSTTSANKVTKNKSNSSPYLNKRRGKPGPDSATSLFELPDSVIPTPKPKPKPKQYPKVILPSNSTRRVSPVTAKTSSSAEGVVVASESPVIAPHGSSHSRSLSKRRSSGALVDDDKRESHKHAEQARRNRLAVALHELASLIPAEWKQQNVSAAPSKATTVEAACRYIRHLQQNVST

| Sequence | relative binding free energy |
| --- | --- |
| CATTGCACGTGCGGTG | -0.01 kcal/mol |
| TAGTTCACGTGGTTAG | 0.21 kcal/mol |
| TGGTTCACGTGCTGGC | 0.32 kcal/mol |
| GTTGACACGTGTCAGT | 0.01 kcal/mol |
| TGTTTCACGTGGCGAG | 0.1 kcal/mol |
| AGGTCCACGTGGTGCG | -0.13 kcal/mol |
| ATATACACGTGTGGAT | 0.14 kcal/mol |
| GTTAGCACGTGATATG | 0.14 kcal/mol |
| GTGATCACGTGTTAGA | 0.13 kcal/mol |
| AGCTGCACGTGTGGCT | -0.02 kcal/mol |
| AGGTGCACGTGGGTTA | -0.23 kcal/mol |
| AGGTTCACGTGTCGAT | 0.29 kcal/mol |
| TTAGGCACGTGTTGTT | -0.01 kcal/mol |
| AGCGGCACGTGTCGTG | 0.05 kcal/mol |
| GTAATCACGTGTGTTC | 0.14 kcal/mol |
| TGATGCACGTGGCTTG | -0.24 kcal/mol |
| CGTAGCACGTGGCTGT | -0.14 kcal/mol |
| ATTGTCACGTGGTAGG | -0.01 kcal/mol |
| TTTGTCACGTGAACGA | 0.33 kcal/mol |
| GTGTTCACGTGTTACA | 0.27 kcal/mol |
| GGTTTCACGTGCATGC | 0.33 kcal/mol |
| AGTATCACGTGGGCAC | 0.17 kcal/mol |
| TTCTCCACGTGGGGTG | -0.27 kcal/mol |
| ATGGTCACGTGTTGCT | 0.19 kcal/mol |
| CGCTTCACGTGTTTTG | 0.33 kcal/mol |

| Sequence | relative binding free energy |
| --- | --- |
| TGATGCACGTGTTTGT | -0.13 kcal/mol |
| GGTGACACGTGGGCGT | -0.09 kcal/mol |
| TGTTACACGTGTGGAT | 0.13 kcal/mol |
| GTCTGCACGTGGGCAG | -0.08 kcal/mol |
| TTCAGCACGTGGGTGA | -0.18 kcal/mol |
| GTAAGCACGTGAGGTT | 0.3 kcal/mol |
| TTAATCACGTGATTAT | 0.16 kcal/mol |
| CGGTGCACGTGTGAGG | 0.06 kcal/mol |
| GTGGTCACGTGTTCGC | 0.15 kcal/mol |
| GTTCACACGTGGGAAT | 0.29 kcal/mol |
| GCGATCACGTGGGAGG | 0.18 kcal/mol |
| GCGGTCACGTGTGTGA | 0.24 kcal/mol |
| CGGAACACGTGGTGGG | 0.03 kcal/mol |
| GGAATCACGTGGTGTG | 0.11 kcal/mol |
| TTGGCCACGTGTGAGA | 0.05 kcal/mol |
| GTTCACACGTGGTTCT | 0.14 kcal/mol |
| GGGGGCACGTGGTAGG | -0.18 kcal/mol |
| TTGTACACGTGGACTG | 0 kcal/mol |
| AGATGCACGTGAATGT | 0.14 kcal/mol |
| TTGGTCACGTGGGGGA | 0.03 kcal/mol |
| GGTGACACGTGGGTGT | -0.05 kcal/mol |
| CAAGTCACGTGGGTGT | -0.06 kcal/mol |
| GTGCGCACGTGGTCAG | -0.16 kcal/mol |
| TCGAGCACGTGATGTT | 0 kcal/mol |
| TGTGGCACGTGGCCTT | -0.17 kcal/mol |

| Sequence | relative binding free energy |
| --- | --- |
| TTTTACACGTGGCTCG | 0.07 kcal/mol |
| AACCTCACGTGGTGGG | 0.29 kcal/mol |
| TAGGGCACGTGGGGTG | -0.17 kcal/mol |
| AGATGCACGTGCATGG | 0 kcal/mol |
| GGGGTCACGTGCTTTG | 0.22 kcal/mol |
| TTGGACACGTGATGGA | 0.18 kcal/mol |
| TACATCACGTGGTGTG | -0.04 kcal/mol |
| TCGTACACGTGTAAGG | 0.19 kcal/mol |
| GGGTGCACGTGGAGAT | 0.06 kcal/mol |
| TATTTCACGTGGTGGA | 0.28 kcal/mol |
| GGTTACACGTGCTTAT | 0.1 kcal/mol |
| TGGCGCACGTGCGTTA | -0.15 kcal/mol |
| TAAGGCACGTGAAATT | 0.14 kcal/mol |
| TGGGCCACGTGACGTG | 0.03 kcal/mol |
| CAGTTCACGTGTTTGT | 0.21 kcal/mol |
| GGAGGCACGTGTTAAA | -0.09 kcal/mol |
| GTCGTCACGTGGTTAA | 0.15 kcal/mol |
| TGATACACGTGAGGTT | 0.23 kcal/mol |
| GGAGTCACGTGATGCG | 0.31 kcal/mol |
| GGAGTCACGTGGAGTG | 0.24 kcal/mol |
| GATTACACGTGTAGAG | 0.21 kcal/mol |
| TGGAACACGTGATGGA | 0.24 kcal/mol |
| GTATACACGTGTTGTC | 0.12 kcal/mol |
| AGAAACACGTGAAGGG | 0.25 kcal/mol |
| TTGGGCACGTGGGTCA | -0.25 kcal/mol |

| Sequence | relative binding free energy |
| --- | --- |
| AGTTCCACGTGGGAGG | -0.1 kcal/mol |
| GTCATCACGTGTTATG | 0.2 kcal/mol |
| GGAGTCACGTGATGTG | 0.18 kcal/mol |
| GATTCCACGTGGTGTT | 0.01 kcal/mol |
| TTTTGCACGTGGAACG | 0.08 kcal/mol |
| ATGAACACGTGTTGAA | 0.1 kcal/mol |
| TTGTACACGTGATTTT | 0.18 kcal/mol |
| AGGAACACGTGGTGAG | -0.09 kcal/mol |
| CGGATCACGTGGCGTT | 0.05 kcal/mol |
| GGTGACACGTGGGAAA | 0.02 kcal/mol |
| GTAGACACGTGACTGG | 0.2 kcal/mol |
| TATGGCACGTGGTTGG | -0.06 kcal/mol |
| AGGGCCACGTGTGAGT | -0.02 kcal/mol |
| TTTTGCACGTGAACGT | 0.05 kcal/mol |
| GAGGTCACGTGTTACG | 0.24 kcal/mol |
| GTGGTCACGTGTAGAT | 0.23 kcal/mol |
| GTTTTCACGTGTTGTG | 0.36 kcal/mol |
| TCAGTCACGTGGTGTA | -0.14 kcal/mol |
| GGTGACACGTGAAATT | 0.36 kcal/mol |
| GCATTCACGTGTAGTT | 0.45 kcal/mol |
| AGAGTCACGTGGGTAG | 0.06 kcal/mol |
| GTAGTCACGTGGGAGA | 0.02 kcal/mol |
| AGTGACACGTGGATGG | 0.01 kcal/mol |
| GTCAGCACGTGGGATG | -0.26 kcal/mol |
| GTTCTCACGTGGGCGT | 0.17 kcal/mol |

| Sequence | relative binding free energy |
| --- | --- |
| TAATTCACGTGATATA | 0.25 kcal/mol |
| AATTTCACGTGGTACA | 0.29 kcal/mol |
| AAAGTCACGTGTGTTC | 0.2 kcal/mol |
| ATTTTCACGTGGTGTA | 0.24 kcal/mol |
| TTTATCACGTGTCGGG | 0.22 kcal/mol |
| GACGTCACGTGTGGTT | 0.19 kcal/mol |
| GTTAGCACGTGGTACT | -0.04 kcal/mol |
| TGGGTCACGTGATAGG | 0.29 kcal/mol |
| GAGAACACGTGGGGCG | 0.07 kcal/mol |
| ATTGGCACGTGAATCG | 0.08 kcal/mol |
| AGGCTCACGTGGGATA | 0.15 kcal/mol |
| AGATGCACGTGTGGAT | -0.05 kcal/mol |
| TTTGACACGTGGCAAT | -0.06 kcal/mol |
| TTCGTCACGTGACTGG | 0.29 kcal/mol |
| TGGCGCACGTGTGCTA | -0.03 kcal/mol |
| TAGTTCACGTGAAGGT | 0.31 kcal/mol |
| CGGATCACGTGGAGGA | 0.18 kcal/mol |
| AAGGGCACGTGAGAGT | 0.24 kcal/mol |
| AAGTTCACGTGTCGTT | 0.22 kcal/mol |
| GTTGCCACGTGGATGT | -0.02 kcal/mol |
| GGTTGCACGTGGAGTT | 0.11 kcal/mol |
| GCGGACACGTGTAAGT | 0.24 kcal/mol |
| AGTTTCACGTGCAGAT | 0.21 kcal/mol |
| AGCGGCACGTGGATGT | -0.01 kcal/mol |
| ATTGTCACGTGTGATT | 0.26 kcal/mol |

| Sequence | relative binding free energy |
| --- | --- |
| ATAGTCACGTGGGGAC | -0.09 kcal/mol |
| GGCGACACGTGTTGTA | 0.09 kcal/mol |
| AATGCCACGTGGGAGG | -0.15 kcal/mol |
| GAGCGCACGTGGGCTG | -0.1 kcal/mol |
| GTAATCACGTGAGTTA | 0.32 kcal/mol |
| TGAGTCACGTGGCGGC | 0.11 kcal/mol |
| GGGGCCACGTGGGGTA | -0.21 kcal/mol |
| TGTTCCACGTGAGTTA | 0.18 kcal/mol |
| TTTTGCACGTGTCTGT | 0.14 kcal/mol |
| ATATACACGTGGATTT | 0.04 kcal/mol |
| ATCTGCACGTGACGGG | 0.24 kcal/mol |
| AGGTCCACGTGGGTGA | -0.02 kcal/mol |
| TGATTCACGTGGATGG | 0.3 kcal/mol |
| CTCGTCACGTGTGCGG | 0.15 kcal/mol |
| CAGTTCACGTGTGGGT | 0.29 kcal/mol |
| TTGGTCACGTGCGCGA | -0.05 kcal/mol |
| AATTGCACGTGAGTTT | 0.21 kcal/mol |
| TAGCGCACGTGGGTAT | -0.2 kcal/mol |
| GTGGACACGTGTGCTT | 0.03 kcal/mol |
| TGTCTCACGTGTGTAT | 0.03 kcal/mol |
| TATGTCACGTGGGAGA | 0.03 kcal/mol |
